From patent US12496332B2 (priority 2019, dated 2025)

System: HIV long terminal repeat-luciferase reporter
Experiment: HIV long terminal repeat-luciferase reporter gene assay (pLTR-Luc)
Settings: treatment with ROS scavenger
Description: For preparation of the luciferase reporter pLTR-Luc, the U3 and R regions of HIV1 promoter 5′-long terminal repeats (−453 to +82) were inserted into pGL3-basic (Promega, Madison, WI). After transfection of pLTR-Luc, experiment was conducted using a Promega luciferase assay kit according to the manufacturer's instructions.
From the result showing that the increase of HIV replication rate (activity of HIV long terminal repeat-luciferase reporter) due to ROS is inhibited by treatment with the representative ROS scavenger NAC, it was confirmed that the ROS produced due to HIV infection plays a major role in viral replication and infection (see FIG. 2, B).

CC(=O)N[C@@H](CS)C(=O)O [NAC, N-acetylcysteine]
increase of HIV replication rate (activity of HIV long terminal repeat-luciferase reporter) due to ROS: inhibited
